Data published in the BET-seq Pho4 binding data (Le et al. 2018).
The list shows a part of the results. These are noisy estimates, calculated here from bound and input reads.

These sequences were tested against T1, Pho4 (S. cerevisiae) (UniProt P07270) (assay: relative binding free energy (BET-seq); higher = weaker binding). Conditions: reference: library average.
T1 sequence: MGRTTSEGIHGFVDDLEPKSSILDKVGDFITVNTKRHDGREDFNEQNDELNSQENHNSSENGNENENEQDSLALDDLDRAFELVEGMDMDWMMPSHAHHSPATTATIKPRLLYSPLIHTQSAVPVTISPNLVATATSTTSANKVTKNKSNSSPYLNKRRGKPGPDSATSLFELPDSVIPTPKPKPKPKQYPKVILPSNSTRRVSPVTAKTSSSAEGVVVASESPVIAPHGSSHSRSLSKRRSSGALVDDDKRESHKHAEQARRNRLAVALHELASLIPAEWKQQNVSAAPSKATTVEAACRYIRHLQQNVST

Sequence | relative binding free energy [kcal/mol]
CGACGCACGTGCGGGG | -0.1
GAAATCACGTGTGTGT | 0.25
CGGGTCACGTGGTCTG | 0.15
AAGTGCACGTGCGGTG | -0.07
CGTTACACGTGGTATG | -0.02
AAAAGCACGTGTGTTT | 0.11
TAGGTCACGTGTGAGG | 0.19
AGGTACACGTGTGAGG | 0.13
TATTTCACGTGGGACT | 0.05
GTTCACACGTGTCTGT | 0.18
CGGTGCACGTGGTCTG | -0.23
GGCTTCACGTGTATGA | 0.26
AATTGCACGTGTTCGG | 0.02
TTGTGCACGTGGCGTA | -0.09
TTAGACACGTGGTCGG | -0.01
CGAGGCACGTGATAGT | -0.06
AGAGGCACGTGAGTAA | 0.24
TGAAACACGTGGGTCG | -0.05
TTTGACACGTGGTGGA | -0.03
GTGAGCACGTGGCTTT | -0.11
AGGATCACGTGGAAGG | 0.14
AAGCTCACGTGGGTGT | 0.12
TTGCGCACGTGGGAGT | -0.18

Sequence | relative binding free energy [kcal/mol]
TTGCCCACGTGAGTGT | 0.1
ATGCTCACGTGGGGCG | -0.06
TGTATCACGTGAGGAC | 0.44
ATTTGCACGTGGGCTA | -0.23
ATAAGCACGTGTGTAA | 0.01
TCCTTCACGTGAGGGG | 0.45
TGTATCACGTGAGAGA | 0.16
TGAATCACGTGATGGT | 0.24
GGCAGCACGTGTAGGA | -0.06
ATGATCACGTGATGTG | 0.16
AAGCTCACGTGGTAGT | 0.27
TTAGACACGTGCATGT | 0.01
GTAGCCACGTGCGGTG | -0.03
GGGGGCACGTGCTGGC | -0.02
GATGGCACGTGGTGGT | -0.13
TGTTGCACGTGTGTTC | -0.01
ACTTTCACGTGAAGTG | 0.36
GGGGTCACGTGCAATG | 0.12
TTAGTCACGTGGTTGC | 0.04
GTTTTCACGTGAAAGG | 0.43
GTGTTCACGTGCTGAG | 0.23
GGGCTCACGTGTGGAT | 0.34
TGTGACACGTGACTGA | 0.23

Sequence | relative binding free energy [kcal/mol]
GTTTGCACGTGTAGCT | 0.12
AGGTTCACGTGATCGG | 0.31
TGGCGCACGTGCATTG | -0.1
TATTTCACGTGGCGGA | 0.12
TAGTGCACGTGAGGTC | 0.26
CGTTTCACGTGGCGCG | 0.28
TGCGTCACGTGTGAGA | 0.24
ATACTCACGTGAGTGG | 0.31
ATTGACACGTGGTCAG | -0.1
TATGGCACGTGAAATG | 0.05
TAGGACACGTGGTTAT | 0.03
TGTATCACGTGCTGTC | 0.06
GGGTACACGTGAGTGC | 0.3
ATTAGCACGTGTAATG | 0.02
TGCTTCACGTGTGTTA | 0.09
GCGTTCACGTGTAAGG | 0.38
GCGGGCACGTGCGTGT | -0.24
TGAAGCACGTGATGGT | 0.12
GCGGTCACGTGGCGCG | 0.15
AGCAGCACGTGGTTGA | -0.17
ATTTCCACGTGTAGGG | -0.01
TCATTCACGTGCGGTT | 0.21
GGAGTCACGTGTTTAT | 0.4

Sequence | relative binding free energy [kcal/mol]
GTCTCCACGTGGGTGG | -0.21
TGGGTCACGTGCTTGT | 0.05
GCAAACACGTGGTGGG | -0.04
ATGTTCACGTGGTCAA | 0.15
TTGATCACGTGGGCGG | -0.1
GGTGCCACGTGTGTAG | -0.09
ATTGCCACGTGGGCGG | -0.22
AGAGGCACGTGCTGTT | -0.15
GTCATCACGTGAGATT | 0.57
GTGTCCACGTGCGGGT | 0.03
GGCGACACGTGTTTAT | 0.18
AGCGGCACGTGATCGG | -0.01
ATGTCCACGTGCGGTA | 0.05
TTGTGCACGTGTGTCT | 0.09
TTTCACACGTGTGGTT | 0.05
GGTGTCACGTGGTTCA | 0.18
TGACGCACGTGTAGGG | -0.2
ATAAGCACGTGTAAGT | -0.05
CTGGGCACGTGTTGAT | -0.11
GAGGGCACGTGTGTTA | -0.04
TATGGCACGTGGAAGT | 0.01
TTTTACACGTGTTTAG | 0.12
TTATTCACGTGCCTGT | 0.32

Sequence | relative binding free energy [kcal/mol]
TCGTGCACGTGGATGA | -0.06
CGTTACACGTGGGGGT | -0.08
TTTTACACGTGCGTGA | 0.07
TTAGTCACGTGGTGCG | -0.02
AATATCACGTGTGTGT | 0.08
GGTGGCACGTGAGGCG | 0.15
TTTTCCACGTGAAATT | 0.43
ACTTGCACGTGTCGGT | 0.01
GGTCGCACGTGGTTGG | 0.02
TGCGTCACGTGGGAGG | -0.01
GTGGTCACGTGGCGGC | 0.08
GGATACACGTGGTTAT | 0.05
CACTTCACGTGTTTGT | 0.22
TTACTCACGTGGGGTC | 0.13
CTGTGCACGTGTCTGG | 0.07
TTTAGCACGTGGGGTA | -0.2
TCAAGCACGTGAGGGT | 0.24
TTTTTCACGTGGAAAA | 0.27
TGGGGCACGTGGAATC | 0.05
GGGCACACGTGGGTGG | 0.02
AAGCTCACGTGGTTTT | 0.26
ACGAGCACGTGGGCGG | -0.24
AGGTGCACGTGTGTAC | 0.03
